# About 540 (0.36%) of roughly 150,000 compounds showed an effect of 50% or more. The list shows a part of the results.
# System: Plasmodium falciparum
# Assay: Primary screen in NF54 nanoGlo assay, in single point, at 2uM, 72h; a lower Z score goes with more inhibition
# Assay type: functional, Erythrocyte
# Conditions: timepoint 72 hour
Compound,% Inhibition [%],Z score
O=C(ON1C(=O)CCC1=O)c1ccc(Cl)cc1Cl,-12,1.65
CCn1cc(NC(=O)NCc2ccc(N3CCCC3=O)cc2)nn1,0,-0.04
Cc1noc(Cl)c1CCC(=O)N1CC2CC1(C(N)=O)C2,-3,0.54
NC(=O)N[C@@H](CC(=O)N1CCN(c2cccc(C(F)(F)F)c2)CC1)c1cccs1,-26,3.47
Cn1cc(-c2noc(C3CC3c3cccnc3)n2)cn1 (centres undefined),-3,0.38
COc1ccc(OC)c(CCCNC(=O)N2CCC(C)(C#N)CC2)c1,2,-0.19
Cc1nc(C)c(CCN[C@@H](C)c2ccc3c(c2)COC3)s1,-15,1.62
CC(=O)N1CCO[C@@H](CNC(=O)c2ccc(-c3ccncc3C)cc2)C1,1,-0.13
COc1cc(C(=O)OCC(=O)NCCC#N)cc(Cl)c1OCC(C)C,-4,0.7
COC(=O)[C@H](NC(=O)Cc1c(C)n[nH]c1C)c1cc(C)cc(C)c1,-13,1.27
C[C@H]1CN(C(=O)CC(C)(C)CC(=O)O)CC(C)(C)O1,-12,1.37
CCN1CCn2cc(S(=O)(=O)NCc3ccccc3C(F)(F)F)cc2C1=O,2,-0.29
Cc1cc2ncc(NS(=O)(=O)Cc3cc(F)ccc3F)cn2n1,-8,1.09
CS(=O)(=O)CCCNc1cc(CO)ccc1Br,14,-1.77
CN1CCC2CCN(C(=O)Nc3cc(Cl)ccc3Cl)C2C1 (centres undefined),-5,0.62
CC(C)C(=O)N1CCc2ccc(OCc3ccc(C(=O)NC4CC4)o3)cc2[C@@H]1c1ccccc1,-21,1.92
CCn1nc2c(c(C(F)F)cc(=O)n2CCC(=O)N2CCCc3cc(C)ccc32)c1C,30,-3.37
CC(C)(CNC(=O)CCn1ccccc1=O)Cc1ccccc1,-9,1.27
CC(C)(C)C[C@H](NC(=O)NC1CCOCC1)c1ccc(Cl)cc1,-12,2.3
Cc1noc(C)c1CN[C@@H](Cc1ccc(Cl)cc1)c1ccccn1,-7,1.12
Cc1nc(C)n(C2CN(c3ncnc4sccc34)C2)n1,13,-2.02
O=C(NC1CCCC1)c1cccn1-c1nnc(N2CCCCCC2)s1,-10,1.48

Compound,% Inhibition [%],Z score
COc1c(C)cc(C(=O)[C@H]2CCCN(c3cc(N)ncn3)C2)cc1C,78,-15.48
CN(C)CC[C@H]1CN(C(=O)c2ccc3cccc(Cl)c3n2)CCO1,3,-0.53
Cc1ccc2c(c1)NC(=O)c1cc(S(=O)(=O)N3CCCCC3)c(NC3CCCC3)cc1O2,-22,3.16
COC(=O)c1cc(NC(=O)N2CC[C@H]3CC[C@@H](C2)N3C)cc(C(=O)OC)c1,-3,0.36
Cc1nonc1C(=O)N1CCN(c2nccs2)CC1,13,-1.51
N#Cc1cccc(S(=O)(=O)Nc2cccn3nc(C4CC4)nc23)c1,10,-1.19
CCc1nccn1CCNC(=O)c1ccccc1NC(=O)[C@@H](C)CC,4,-0.65
CC(C)c1nc(CN2CCC[C@H](O)c3cc(F)ccc32)no1,-4,0.54
Cc1nc(C(=O)N[C@H]2CCN(c3ncccc3F)C2)c2ccccn12,-1,0.08
N#Cc1ccsc1NC(=O)CCN1CCC[C@H]1c1ccc2c(c1)OCCCO2,4,-0.49
COCc1nc(CCNC(=O)C(C)C)no1,4,-0.48
Cc1csc([C@@H](C)CNc2ncnc3sccc23)n1,-7,1.11
O=C(CCn1ccccc1=O)Nc1ncccc1OCC1CCCCC1,11,-1.19
CN(C)CC(C)(C)CNC(=O)CC1CCN(C(=O)OC(C)(C)C)CC1,5,-0.47
O=C(Nc1cccn2cnnc12)N(Cc1ccsc1)C1CCCCC1,-14,1.56
CNC(=O)CN1CCC(C(C)(F)F)CC1,-2,0.33
CCN=C(NCCc1nc(C)no1)NCc1ccc(OC)c(OC)c1,-8,1.11
COC(=O)[C@H]1CC[C@@H](NC(=O)OCc2ccccc2)C1,0,0.01
COc1cccc(-c2nccn2CCNc2ncccc2C)c1OC,5,-0.58
CC(=O)N[C@H]1C[C@@H](c2[nH]c3ccc(Cl)cc3c2C)O[C@@H](C(C)C)C1,-5,0.9
Cc1cc(C)c2[nH]c(C(=O)N3CCCN([C@H]4COC[C@@H]4O)CC3)c(C)c2c1,-2,0.34
Cc1nnc(NCCc2csc(N3CCCC3)n2)c(C#N)c1C,-5,0.49

Compound,% Inhibition [%],Z score
Cc1ccc(CN2C[C@@H](CO)[C@H](NC(=O)c3ccccc3)C2)o1,-10,1.44
Cc1cc(C(=O)N2C[C@H](C3CC3)[C@@H](N)C2)cs1,-8,1.06
Cn1cncc1CCNc1ccc(C#N)cn1,2,-0.25
Cc1cc(NC(=O)CN2C(=O)CN(c3ccc(Br)cc3)C2=O)no1,-7,1.13
CN(C)S(=O)(=O)N1CC(Oc2ccccc2)C1,-7,1.14
CN(Cc1ccccc1)C(=O)C[C@H]1CCN(C(=O)c2cnccn2)C1,38,-5.54
CN1CCN([C@@H]2COC3(C2)CN(C(=O)Cc2ccccc2F)C3)CC1,-15,2.3
O=C(OC1CCOCC1)N1CC[C@H](Oc2ccncn2)C1,-12,1.84
CO[C@@H](CNC(=O)NC(C)C)c1ccccc1C,22,-2.74
Cc1noc(CN(C)C(=O)c2cccc(S(=O)(=O)N3CCNCC3)c2)n1,-24,2.58
CCCCCC(=O)N[C@@H](C(=O)O)c1c(C)n[nH]c1C,-8,1.02
Cc1ccc(C(C)(C)CN(C)C(=O)c2nc(C)c(C)[nH]c2=O)cc1,-7,1.31
COc1ccc(C(C)(C)C(=O)N2CCCC2C2CCCCC2O)cc1 (centres undefined),0,-0.04
CC(C)C(=O)NCCCNC(=O)NCC1C2CCc3ccccc3C21 (centres undefined),-4,0.5
COc1ccc(NC(=O)N2CC(n3nc(C)nc3C)C2)cc1,3,-0.47
O=C(Cn1ccccc1=O)Nc1cccc(N2CCCC2=O)c1,-16,1.91
CCOc1cccc(Cn2cc(Br)ccc2=O)n1,33,-4.39
CCc1ncnc(O[C@H]2CCN(C(=O)Cn3cnc4ccccc4c3=O)C2)c1F,-4,0.62
Cc1ccc(-c2cn[nH]c2[C@H]2CCCN(C(=O)c3ccccc3C#N)C2)cc1,-3,0.53
Cc1nnc(CS(=O)(=O)[C@@H](C)c2c(F)cccc2F)n1C,1,-0.09
CC(C)N1CCC(CC(=O)N2CCCC[C@@H]2CCn2ccnc2)CC1,-2,0.42
CCCN(C)S(=O)(=O)NC(=O)C1CC=CC1,-10,1.03

Compound,% Inhibition [%],Z score
COc1ccccc1CC(=O)N1CC[C@H](c2nc3ccncc3n2C(C)C)C1,-13,1.32
CN(CCc1ncnn1-c1ccc2c(c1)OCCO2)[C@H]1CCS(=O)(=O)C1,-13,1.26
Cn1ccc(-c2nnc(NC(=O)C3CCCCC3)o2)n1,-10,1.57
Cc1cc(F)cc(NC(=O)NCCCN2CCCN(C)CC2)c1,-3,0.5
Cc1cc(NC(=O)COc2ccc3c(n2)CCC3)n(C)n1,-6,1.15
COCc1nc(-c2scc3c2CCCC3)n(CCO)n1,5,-0.43
CCN(C(=O)c1cn(CC(F)F)nc1C)[C@H]1CCNC1=O,-6,0.63
CC(C)c1noc(N2CC(C(N)=O)CCC2C)n1 (centres undefined),-6,0.64
Cc1ccc(CCC(=O)NCCCc2cccnc2)cc1C,-13,1.37
CCn1c(CN2CC(N3CCNC3=O)C2)nc2ccccc21,-3,0.59
CCN1C[C@H](CN(C)C(=O)c2ccc(OC)c(F)c2)Oc2ccccc21,-11,1.6
Cc1ccc(Cn2cccc2C(=O)C(=O)Nc2ccc(F)cc2Cl)cc1,-8,0.74
CC[C@@H]1Oc2ccc(NS(=O)(=O)c3cccc(Cl)c3)cc2CN(Cc2ccccc2)C1=O,-10,1.27
O=C([C@@H]1COc2ccccc2O1)N1CCCc2cc(S(=O)(=O)N3CCCC3)ccc21,-9,1.07
N#Cc1ccc(N2CCC(O)C3CCCCC32)nn1 (centres undefined),-5,0.61
CC(C)(C)n1cc(CNc2ncccc2OC(F)F)cn1,-10,1.25
c1nc(C2CC2)c(CNC[C@H]2CCOC3(CCC3)C2)s1,2,-0.39
CCn1nnnc1-c1cccc(NCc2cccc(C#N)c2)c1,-5,1.03
C=CCN(c1ccc2nnc(C(F)(F)F)n2n1)C1CC1,-4,0.49
Cc1noc(CN2CC(O)=C(c3nc4ccccc4s3)C2=N)n1,0,0.04
CCn1ncnc1[C@H](C)NC(=O)Nc1ccc(Cl)c(C)c1,-7,1.36
